These are yes or no findings as the source states them, for the method shown. Some entries that bind do so weakly or less than the wild type.
How the values were obtained:
[1] = target: FAM118B24–334-F122R (human) (UniProt Q9BPY3); assay: SEC; analytical SEC, Superdex Increase 10/300 GL, 50 mM Tris pH 8, 200 mM NaCl, 0.5 mM TCEP; injection concentrations up to 20 µM (mutant mixture: 10 µM each); sizes are coarse estimates from globular standards; both purified
[2] = target: FAM118B-F122R, full length, tagged with mEGFP or with mCherry (human) (UniProt Q9BPY3); assay: fluorescence cross-correlation spectroscopy (FCCS); living U2OS cells coexpressing an mEGFP-tagged and an mCherry-tagged protein, 37 °C; diffuse, lower-expressing cells
[3] = target: FAM118B-L32R, full length, tagged with mEGFP or with mCherry (human) (UniProt Q9BPY3); assay: as above
[4] = target: FAM118B24–334-L32R (human) (UniProt Q9BPY3); assay: SEC; analytical SEC, Superdex Increase 10/300 GL, 50 mM Tris pH 8, 200 mM NaCl, 0.5 mM TCEP; injection concentrations up to 20 µM (mutant mixture: 10 µM each); sizes are coarse estimates from globular standards; both purified

Sequences of proteins named here, by UniProt entry; tags and fusion partners are left off. A change or cut given only in a name is not applied to a line headed by its entry. A line that says so, or that is headed by a name, gives the form on record, which may keep a tag or linker.
UniProt Q9BPY3: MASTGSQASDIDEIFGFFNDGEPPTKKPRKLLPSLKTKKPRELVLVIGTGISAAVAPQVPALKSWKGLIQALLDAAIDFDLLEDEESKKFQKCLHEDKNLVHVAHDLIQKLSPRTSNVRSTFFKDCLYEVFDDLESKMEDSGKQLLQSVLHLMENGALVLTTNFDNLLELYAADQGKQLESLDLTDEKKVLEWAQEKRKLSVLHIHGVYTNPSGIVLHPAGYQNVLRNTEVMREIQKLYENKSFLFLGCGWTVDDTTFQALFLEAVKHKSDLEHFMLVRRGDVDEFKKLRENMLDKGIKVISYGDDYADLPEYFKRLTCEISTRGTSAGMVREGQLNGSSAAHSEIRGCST
FAM118B24–334-F122R (Q9BPY3, form named): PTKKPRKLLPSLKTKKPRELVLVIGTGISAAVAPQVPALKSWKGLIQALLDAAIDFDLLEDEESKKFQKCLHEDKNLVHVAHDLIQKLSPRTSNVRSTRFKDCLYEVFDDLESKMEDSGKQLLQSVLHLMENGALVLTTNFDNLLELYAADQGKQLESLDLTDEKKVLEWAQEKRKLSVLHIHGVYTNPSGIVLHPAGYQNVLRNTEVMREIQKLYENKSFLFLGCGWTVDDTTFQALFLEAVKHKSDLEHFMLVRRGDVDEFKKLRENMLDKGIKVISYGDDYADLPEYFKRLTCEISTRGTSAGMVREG
FAM118B24–334-L32R (Q9BPY3, form named): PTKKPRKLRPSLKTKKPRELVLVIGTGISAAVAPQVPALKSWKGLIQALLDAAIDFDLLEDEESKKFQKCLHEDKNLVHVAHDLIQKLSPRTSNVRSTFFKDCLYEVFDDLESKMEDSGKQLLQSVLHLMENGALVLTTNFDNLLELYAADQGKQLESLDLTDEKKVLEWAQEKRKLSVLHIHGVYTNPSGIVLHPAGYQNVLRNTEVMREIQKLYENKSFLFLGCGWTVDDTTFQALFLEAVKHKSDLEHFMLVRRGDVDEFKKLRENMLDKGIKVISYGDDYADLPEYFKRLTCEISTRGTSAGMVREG

| binding [1] | binding [2] | binding [3] | binding [4] | Substance |
| --- | --- | --- | --- | --- |
| binds weakly | – | – | – | FAM118B24–334-F122R (from UniProt Q9BPY3 24-334) (domain or fragment) |
| – | no binding | binds | – | FAM118B-F122R, full length, tagged with mEGFP or with mCherry (from UniProt Q9BPY3 1-351) (enzyme) |
| – | – | – | no binding (tested: 20 µM) | FAM118B24–334-L32R (from UniProt Q9BPY3 24-334) (domain or fragment) |
| – | binds | no binding | – | FAM118B-L32R, full length, tagged with mEGFP or with mCherry (from UniProt Q9BPY3 1-351) (enzyme) |
